# Measured values as given in the supplement of paper PMC8728848.
# Some of the results follow.
# Assays:
# Assay in all cases: glycan array binding signal (z-score within array); higher = stronger binding
# Settings in all cases: glycan notation: IUPAC condensed, linker removed
# [1] = target: Gal(b1-3)GlcNAc(b1-2)Man(a1-3)[Gal(b1-3)GlcNAc(b1-2)Man(a1-6)]Man(b1-4)GlcNAc(b1-4)[Fuc(a1-6)]GlcNAc
# In short: (§1)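 Columns mapping to the same glycan were averaged after glycan names were converted to IUPAC-condensed notation. The data come from 3228 arrays in the Consortium for Functional Glycomics database, limited to those with an available protein sequence. Binding is reported as a within-array Z-score averaged across arrays of one protein sequence and across linkers.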
# [2] = target: Gal(b1-3)GlcNAc(b1-2)Man(a1-3)[GlcNAc(b1-4)][Gal(b1-3)GlcNAc(b1-2)Man(a1-6)]Man(b1-4)GlcNAc(b1-4)GlcNAc
# In short: as §1
# [3] = target: Gal(b1-3)GlcNAc(b1-2)[Gal(b1-3)GlcNAc(b1-6)]Man(a1-6)[Gal(b1-3)GlcNAc(b1-2)Man(a1-3)]Man(b1-4)GlcNAc(b1-4)GlcNAc
# In short: as §1
# [4] = target: Gal(b1-3)GlcNAc(b1-3)Gal(b1-3)GlcNAc
# In short: as §1
# [5] = target: Gal(b1-3)GlcNAc(b1-3)Gal(b1-4)Glc
# In short: as §1
# [6] = target: Gal(b1-3)GlcNAc(b1-3)Gal(b1-4)GlcNAc
# In short: as §1
# [7] = target: Gal(b1-3)GlcNAc(b1-3)Gal(b1-4)GlcNAc(b1-2)Man(a1-3)[Gal(b1-3)GlcNAc(b1-3)Gal(b1-4)GlcNAc(b1-2)Man(a1-6)]Man(b1-4)GlcNAc(b1-4)GlcNAc
# In short: as §1
# [8] = target: Gal(b1-3)GlcNAc(b1-3)Gal(b1-4)GlcNAc(b1-2)[Gal(b1-3)GlcNAc(b1-3)Gal(b1-4)GlcNAc(b1-6)]Man(a1-6)[Gal(b1-3)GlcNAc(b1-3)Gal(b1-4)GlcNAc(b1-2)Man(a1-3)]Man(b1-4)GlcNAc(b1-4)[Fuc(a1-6)]GlcNAc
# In short: as §1
# [9] = target: Gal(b1-3)GlcNAc(b1-3)Gal(b1-4)GlcNAc(b1-3)Gal(b1-4)GlcNAc(b1-2)[Gal(b1-3)GlcNAc(b1-3)Gal(b1-4)GlcNAc(b1-3)Gal(b1-4)GlcNAc(b1-6)]Man(a1-6)[Gal(b1-3)GlcNAc(b1-3)Gal(b1-4)GlcNAc(b1-3)Gal(b1-4)GlcNAc(b1-2)Man(a1-3)]Man(b1-4)GlcNAc(b1-4)[Fuc(a1-6)]GlcNAc
# In short: as §1
# [10] = target: Gal(b1-3)GlcNAc(b1-3)Gal(b1-4)GlcNAc(b1-6)[Gal(b1-3)GlcNAc(b1-3)]Gal(b1-4)Glc
# In short: as §1
# [11] = target: Gal(b1-3)GlcNAc(b1-3)Gal(b1-4)[Fuc(a1-3)]GlcNAc
# In short: as §1
# [12] = target: Gal(b1-3)GlcNAc(b1-3)Gal(b1-4)[Fuc(a1-3)]GlcNAc(b1-6)[Gal(b1-3)GlcNAc(b1-3)]Gal(b1-4)Glc
# In short: as §1
# [13] = target: Gal(b1-3)GlcNAc(b1-3)GalNAc
# In short: as §1
# [14] = target: Gal(b1-3)GlcNAc(b1-6)Gal(b1-4)GlcNAc
# In short: as §1
# [15] = target: Gal(b1-3)GlcNAc(b1-6)GalNAc
# In short: as §1
# [16] = target: Gal(b1-3)GlcNAc(b1-6)[Gal(b1-3)]GalNAc
# In short: as §1
# Gal(b1-3)GlcNAc6S = target: Gal(b1-3)GlcNAc6S
# In short: as §1
# [17] = target: Gal(b1-3)[Fuc(a1-4)]GlcNAc
# In short: as §1
# [18] = target: Gal(b1-3)[Fuc(a1-4)]GlcNAc(b1-2)Man
# In short: as §1
# [19] = target: Gal(b1-3)[Fuc(a1-4)]GlcNAc(b1-2)Man(a1-3)[Gal(b1-3)[Fuc(a1-4)]GlcNAc(b1-2)Man(a1-6)]Man(b1-4)GlcNAc(b1-4)[Fuc(a1-6)]GlcNAc
# In short: as §1
# [20] = target: Gal(b1-3)[Fuc(a1-4)]GlcNAc(b1-3)Gal(b1-3)[Fuc(a1-4)]GlcNAc
# In short: as §1
# [21] = target: Gal(b1-3)[Fuc(a1-4)]GlcNAc(b1-3)Gal(b1-4)[Fuc(a1-3)]GlcNAc
# In short: as §1
# [22] = target: Gal(b1-3)[Fuc(a1-4)]GlcNAc(b1-6)GalNAc
# In short: as §1
# [23] = target: Gal(b1-3)[GlcNAc(b1-6)]GalNAc
# In short: as §1
# [24] = target: Gal(b1-3)[Neu5Ac(a2-6)]GalNAc
# In short: as §1
# [25] = target: Gal(b1-3)[Neu5Ac(a2-6)]GlcNAc(b1-4)Gal(b1-4)Glc
# In short: as §1
# [26] = target: Gal(b1-3)[Neu5Ac(b2-6)]GalNAc
# In short: as §1
# Gal(b1-4)Gal = target: Gal(b1-4)Gal
# In short: as §1
# [27] = target: Gal(b1-4)GalNAc(a1-3)[Fuc(a1-2)]Gal(b1-4)GlcNAc
# In short: as §1
# [28] = target: Gal(b1-4)GalNAc(b1-3)[Fuc(a1-2)]Gal(b1-4)GlcNAc
# In short: as §1
# Gal(b1-4)Glc = target: Gal(b1-4)Glc
# In short: as §1
# Gal(b1-4)Glc6S = target: Gal(b1-4)Glc6S
# In short: as §1
# Gal(b1-4)GlcNAc = target: Gal(b1-4)GlcNAc
# In short: as §1
# [29] = target: Gal(b1-4)GlcNAc(a1-6)Gal(b1-4)GlcNAc
# In short: as §1
# Gal(b1-4)GlcNAc(b1-2)Man = target: Gal(b1-4)GlcNAc(b1-2)Man
# In short: as §1
# [30] = target: Gal(b1-4)GlcNAc(b1-2)Man(a1-3)Man(b1-4)GlcNAc(b1-4)GlcNAc
# In short: as §1
# [31] = target: Gal(b1-4)GlcNAc(b1-2)Man(a1-3)[Gal(b1-4)GlcNAc(b1-2)Man(a1-6)]Man(b1-4)GlcNAc(b1-4)GlcNAc
# In short: as §1
binder,measurement,setting,value
Si Bti9 1b-V5-his (Solanum lycopersicum) (protein) MQCNRGCDLALASFYVWRGSNLTLISEMFSTSIADIVSYNNRDNIPNQDSVIAGTRINIPFRCDCLNDGEVLGHAFPYRVKSGDTYDLVARNYSDLTTAQWMMKFNSYPENNIPNTVNLSVVVNCSCGNSDVSKDFGLFVTYPVRAEDNLTSVASAANVSEDIIRRYNPAAVSILDIGQGIIYIPGRDRNGNFPPLPTSTDGLSGGAKKGGRADPAFLYKVVINSKLEGKPIPNPLLGLDSTRTGHHHHHH,glycan array binding signal (z-score),[1],-0.076
same,glycan array binding signal (z-score),[2],-0.22
same,glycan array binding signal (z-score),[3],-0.044
same,glycan array binding signal (z-score),[4],0.11
same,glycan array binding signal (z-score),[5],-0.453
same,glycan array binding signal (z-score),[6],-0.319
same,glycan array binding signal (z-score),[7],-0.029
same,glycan array binding signal (z-score),[8],0.036
same,glycan array binding signal (z-score),[9],0.192
same,glycan array binding signal (z-score),[10],-0.125
same,glycan array binding signal (z-score),[11],-0.216
same,glycan array binding signal (z-score),[12],-0.392
same,glycan array binding signal (z-score),[13],0.141
same,glycan array binding signal (z-score),[14],-0.302
same,glycan array binding signal (z-score),[15],-0.237
same,glycan array binding signal (z-score),[16],0.09
same,glycan array binding signal (z-score),Gal(b1-3)GlcNAc6S,-0.36
same,glycan array binding signal (z-score),[17],-0.257
same,glycan array binding signal (z-score),[18],1.83
same,glycan array binding signal (z-score),[19],0.457
same,glycan array binding signal (z-score),[20],-0.064
same,glycan array binding signal (z-score),[21],-0.206
same,glycan array binding signal (z-score),[22],-0.342
same,glycan array binding signal (z-score),[23],-0.247
same,glycan array binding signal (z-score),[24],-0.06
same,glycan array binding signal (z-score),[25],-0.034
same,glycan array binding signal (z-score),[26],-0.33
same,glycan array binding signal (z-score),Gal(b1-4)Gal,-0.067
same,glycan array binding signal (z-score),[27],-0.322
same,glycan array binding signal (z-score),[28],-0.43
same,glycan array binding signal (z-score),Gal(b1-4)Glc,-0.288
same,glycan array binding signal (z-score),Gal(b1-4)Glc6S,0.072
same,glycan array binding signal (z-score),Gal(b1-4)GlcNAc,-0.283
same,glycan array binding signal (z-score),[29],-0.297
same,glycan array binding signal (z-score),Gal(b1-4)GlcNAc(b1-2)Man,0.064
same,glycan array binding signal (z-score),[30],-0.272
same,glycan array binding signal (z-score),[31],-0.298
